PubChem BioAssay AID743255 (National Center for Advancing Translational Sciences (NCATS), 2014)
Screen size: about 390,000 compounds; about 910 (0.23%) were called active. About 5% were inconclusive and are not listed. Calls follow the shape of the dose curve; as a rule, active = well fitted inhibition curve with a large enough effect; inconclusive = small, poorly fitted or top-dose-only effect; inactive = no such curve, though single readings can be large or run the other way. The entries are a selection whose mix differs from that of the whole data set.

molecular target: Ubiquitin carboxyl-terminal hydrolase 1 (Homo sapiens) (UniProt O94782); test: Inhibitors of USP1/UAF1: Primary Screen; conditions: recombinant USP1/UAF1, Ub-Rhodamine cleavage fluorescence; activity change, negative = inhibition: at 57.1 µM (top of the series); also: nearly all actives have a fitted effect of over 60% in size
Procedure, shortened: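 Step one: compound is pinned into 1nM USP1/UAF1 in HEPES pH 7.8 buffer with TCEP. Step two: 15 min room-temperature incubation. Step three: Ub-Rho (150nM final) starts cleavage, tracked by fluorescence over six one-minute reads.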
% is scaled to controls: 0 for no effect and ±100 for the full control effect; potency is read from the fitted curve at half-maximal effect.

Chain of UniProt O94782 (O94782 whole entry, looked up): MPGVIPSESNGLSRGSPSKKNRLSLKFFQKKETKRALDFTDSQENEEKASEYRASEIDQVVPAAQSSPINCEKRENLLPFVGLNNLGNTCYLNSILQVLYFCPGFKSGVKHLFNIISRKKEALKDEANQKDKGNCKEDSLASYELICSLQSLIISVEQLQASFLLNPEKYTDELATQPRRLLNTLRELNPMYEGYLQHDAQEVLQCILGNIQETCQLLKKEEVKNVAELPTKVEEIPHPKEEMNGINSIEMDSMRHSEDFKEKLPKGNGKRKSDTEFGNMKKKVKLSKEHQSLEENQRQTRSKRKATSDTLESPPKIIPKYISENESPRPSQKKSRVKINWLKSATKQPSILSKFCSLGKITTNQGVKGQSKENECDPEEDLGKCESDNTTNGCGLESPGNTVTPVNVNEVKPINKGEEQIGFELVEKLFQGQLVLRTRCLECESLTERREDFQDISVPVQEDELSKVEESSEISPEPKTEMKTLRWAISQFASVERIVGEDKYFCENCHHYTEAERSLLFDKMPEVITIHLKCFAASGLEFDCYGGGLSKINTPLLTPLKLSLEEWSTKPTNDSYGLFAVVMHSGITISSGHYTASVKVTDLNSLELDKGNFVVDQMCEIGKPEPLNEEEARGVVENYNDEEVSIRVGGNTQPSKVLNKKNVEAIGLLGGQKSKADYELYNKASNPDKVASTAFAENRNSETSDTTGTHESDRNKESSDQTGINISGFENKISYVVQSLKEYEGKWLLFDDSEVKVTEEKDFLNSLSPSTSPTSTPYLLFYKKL

Structure (SMILES) | Potency | activity change, negative = inhibition
O=C1C(Cl)=C(NCCN2CCCCC2)C(=O)c2ccccc21 | active: 17.8 µM | 
COC(C[C@@H]1O[C@@H]1[C@@H](O)COCc1ccccc1)OC |  | inactive: -29.1%
C[C@H](CO)N1C[C@H](C)[C@H](CN(C)Cc2ccccc2)Oc2ncc(Br)cc2C1=O |  | inactive: 8.11%
CCOc1ccccc1NC(=O)CSc1cc(=O)n(CC)c2ccccc12 |  | inactive: 41.9%
CCCCNC(=O)COC(=O)c1c2c(nc3ccccc13)/C(=C/c1cccs1)CC2 |  | inactive: -2.46%
CCN(CC)S(=O)(=O)c1cccc(C(=O)NC(C(=O)NC2=NCCS2)C(C)C)c1 (stereo unspecified) |  | inactive: -0.318%
Cc1cccc(N(C)S(=O)(=O)c2ccc3c(c2)NC(=O)CC(=O)N3)c1 |  | inactive: -14.3%
CCc1nc2ccc(C(=O)N3CCN(c4cccc(Cl)c4)CC3)cc2nc1CC |  | inactive: -23.1%
CCOC(=O)CC(=O)CSc1nc2ccc(C)cc2cc1C#N | active: 28.2 µM | 
Cc1ccc([C@@H]2[C@@H]3C(=O)N(C)C(=O)[C@@H]3[C@]3(C)C(=O)N(Cc4ccccc4)CC(=O)N23)o1 |  | inactive: 23.3%
O=C(Nc1ccccc1F)C(=Cc1sc(N2CCOCC2)nc1-c1ccccc1)C(=O)Nc1ccccc1F |  | inactive: 277%
CCC(C)N1C(=O)/C(=C/c2c(NCCCOC(C)C)nc3c(C)cccn3c2=O)SC1=S (stereo unspecified) |  | inactive: 27.6%
C/C=C(\C)C(=O)NCCN1C2=NC[C@@H](Cc3ccccc3)N2C[C@H]1Cc1ccc(O)cc1 |  | inactive: -26%
CCc1ccc(NC(=O)C2=CC(c3cccs3)=NS(=O)(=O)N2C)cc1 |  | inactive: -16.1%
C[C@H](NC(=O)c1ncn(C)c1C(=O)N[C@@H](C)c1ccccc1)c1ccccc1 |  | inactive: -17.9%
C=CC[C@H](CC(=O)NCCO)C(=O)N[C@H](COC(=O)[C@@H](CC=C)CC(=O)OC(C)(C)C)Cc1c[nH]c2ccccc12 |  | inactive: -12%
C[C@@H]1COC(=O)[C@H](CC(=O)OC(C)(C)C)C/C=C\C[C@H](CC(=O)NCCO)C(=O)N1 |  | inactive: -0.622%
CCn1cc(C(=O)N2CCN(c3ccccc3)CC2)c(=O)c2cc(S(=O)(=O)N3CCOCC3)ccc21 |  | inactive: -8.55%
O=C1C=C(Nc2cccc3cccnc23)c2ccccc2C1=O | active: 17.8 µM | 
CCOc1ccc(Cn2c(=O)sc3ccccc32)cc1 |  | inactive: -24.8%
CCO[C@H]1c2c(ccc3ccc(=O)oc23)OC(C)(C)[C@@H]1O |  | inactive: -4.41%
CN(C)c1ccc(/C=C(\C#N)C(=O)Nc2nc3c(s2)CCN(Cc2ccccc2)C3)cc1 | active: 4.47 µM | 

Structure (SMILES) | Potency | activity change, negative = inhibition
CCc1ccc(CNc2ccc(O)cc2)cc1 | active: 28.2 µM | 
Nc1cccc2cc(S(=O)(=O)O)ccc12 | active: 7.08 µM | 
CCN(CC)c1ccc(/C=C2\C(=O)c3ccc(C(=O)O)cc3C2=O)cc1 | active: 14.1 µM | 
C=C(C)C(=O)Nc1cccc(C2=NOC3(C2)C[C@@H](C(N)=O)N(C(=O)C2(C)CC2)C3)c1 (stereo partly specified) |  | inactive: 31.5%
CCOC(=O)/C(=C\C=C1/Sc2cc(OCC)c(OCC)cc2N1CC)C(C)=O | active: 25.1 µM | 
OC[C@@H](O)[C@@H](O)[C@H](O)[C@@H](O)CO |  | inactive: -9.92%
C[C@@H]1CN([C@@H](C)CO)C(=O)CCCn2nncc2CO[C@@H]1CN(C)C(=O)Nc1ccccc1F |  | inactive: -19.6%
O=c1ccc(-c2ccccc2)nn1Cc1ccc(F)cc1Cl |  | inactive: -15%
C[C@H]1CCC[C@]2(O[C@@H](CCO)C[C@@H](O)[C@@H]2O)O1 |  | inactive: -23.4%
Nc1ccc(S(=O)(=O)O)cn1 | inactive | 
CC(C)CCN(C(=O)Nc1ccccc1)C(C)c1cccs1 (stereo unspecified) |  | inactive: -19.4%
C[C@H](CO)N1C[C@H](C)[C@H](CN(C)S(=O)(=O)c2ccc(-n3cccn3)cc2)OCc2cnnn2CCCC1=O |  | inactive: -11.7%
COC(C/C=C\[C@H](O)COCc1ccccc1)OC |  | inactive: -29.7%
O=C(NCc1cccs1)C1CCCN1S(=O)(=O)c1ccccc1F (stereo unspecified) |  | inactive: -13.1%
C[C@@H]1CN(S(=O)C(C)(C)C)[C@@H](CCO)/C1=C\c1ccccc1 (stereo partly specified) |  | inactive: -28.1%
COC(=O)c1ccc(NC(=O)CN2CCN(S(=O)(=O)c3ccc(Br)cc3)CC2)cc1 |  | inactive: -16.6%
COc1ccc(/C=C2\NC(=S)N(CC3CCCO3)C2=O)c(OC)c1 (stereo unspecified) |  | inactive: 36.1%
C=CCC[C@@H](Cc1ccc(F)cc1)C(=O)OC[C@H](C)NC(=O)[C@@H](CC=C)CC(=O)N(CCO)Cc1ccccc1 |  | inactive: -20.5%
C[C@H]1NC(=O)[C@]2(C)[C@@H](c3ccccc3)[C@H]3COc4ccccc4[C@@H]3N2C1=O |  | inactive: -20.7%
C[C@H]1CN([C@@H](C)CO)C(=O)CCCn2cc(nn2)CO[C@@H]1CN(C)S(=O)(=O)c1ccc2ccccc2c1 |  | inactive: -16.8%
C[C@@H]1CN([C@H](C)CO)C(=O)CCCn2nncc2CO[C@H]1CN(C)Cc1cccc(C(F)(F)F)c1 |  | inactive: -2.24%
CN1C(=O)/C(=C/C=C2/CCCN2C)N(C)C1=S |  | inactive: -26.2%

Structure (SMILES) | Potency | activity change, negative = inhibition
Cc1ccc(OC(=O)N(C)C[C@@H]2OCc3cn(nn3)CCCC(=O)N([C@H](C)CO)C[C@H]2C)cc1 |  | inactive: -21.2%
C#C[C@]1(O)CC[C@H]2[C@@H]3CCC4=CC(=O)CC[C@@H]4[C@H]3CC[C@@]21C |  | inactive: -14.9%
C=CC[C@@H](CC(=O)N(CCO)Cc1ccccc1)C(=O)N[C@H](COC(=O)[C@@H](CC=C)CC(=O)OC(C)(C)C)Cc1ccccc1 |  | inactive: -24%
CCC1CN(C(=O)N2CCC(C(=O)NCCc3ccc(OC)c(OC)c3)CC2)c2ccccc2O1 (stereo unspecified) |  | inactive: -20.6%
COc1ccc(-c2nn(C)c3sc(C(=O)NCCN(C)C)cc23)cc1OC |  | inactive: -11.3%
CCC1CCCCN1CCCNC(=O)c1ccc2c(c1)c(C)c(C)n2CC (stereo unspecified) |  | inactive: -6.05%
Cn1c(=O)c(=O)n(C)c2cc(S(=O)(=O)CCC(=O)Nc3ccc(F)cc3)ccc21 |  | inactive: -7.34%
CC(=O)Nc1ccc(NC(=O)CSc2nc3ccccc3nc2N2CCC(C)CC2)cc1 |  | inactive: -10%
Cc1ccc(-c2cc(C(F)(F)F)c(C#N)c(SCC(=O)Nc3ccccc3)n2)cc1 |  | inactive: 33.6%
C[C@@H]1CN([C@H](C)CO)C(=O)CCCn2nncc2CO[C@H]1CN(C)S(=O)(=O)c1ccccc1F |  | inactive: -6.42%
CCc1c(C)nc(SCC(=O)N2CCN(c3ccccc3OC)CC2)[nH]c1=O |  | inactive: -9.81%
COc1ccc(C(=O)Nc2ccc3nc4n(c(=O)c3c2)CCCCC4)cc1OC |  | inactive: -22.6%
CCCCCC(=O)N1C[C@@H](n2cc(-c3ccc(F)cc3)nn2)[C@H](O)C[C@@H]1c1ccc(C)cc1 |  | inactive: -13%
CCN1C(=O)/C(=C\c2nc3ccccc3c(=O)n2-c2ccccc2)c2ccccc21 |  | inactive: -27%
OCC[C@@H]1C[C@@H](O)[C@H](O)[C@@]2(CCCO2)O1 |  | inactive: -22.7%
O=C(NC1CC1)C1=C[C@H](c2coc3ccccc3c2=O)C[C@H](OCCCCO)O1 |  | inactive: -25.1%
O=C1N[C@H](Cc2ccccc2)COC(=O)[C@H](Cc2ccc(F)cc2)CC/C=C/C[C@@H]1CC(=O)N(CCO)Cc1ccccc1 |  | inactive: -18.2%
CCOC(=O)/C=C1\SCC(=O)N1CC(=O)Nc1ccc2c(c1)CCC2 |  | inactive: -0.916%
CCOC(=O)[C@@H]1[C@H]2COc3ccc(Br)cc3[C@@H]2N2C(=O)N(c3cccc(F)c3)C(=O)[C@@]12C |  | inactive: -22%
O=C(NCc1cccc(C(F)(F)F)c1)c1cccc2c1C(=O)c1ccc(N3CCC(Cc4ccccc4)CC3)cc1S2(=O)=O | active: 25.1 µM | 
CC(=O)c1cccc(NC(=O)c2ccc3c(c2)CCN3S(=O)(=O)c2ccccc2)c1 |  | inactive: -12.8%
Cc1ccc(NC(=O)c2nc[nH]c2C(=O)N[C@@H](C)c2ccccc2)cc1 |  | inactive: -21.8%

Structure (SMILES) | Potency | activity change, negative = inhibition
C[C@H]1COC(=O)[C@H](NC(=O)OCC2c3ccccc3-c3ccccc32)C/C=C\C[C@H](CC(=O)N(CCO)Cc2ccccc2)C(=O)N1 |  | inactive: -4.71%
COc1cccc(S(=O)(=O)N(C)C[C@@H]2OCc3cnnn3CCCC(=O)N([C@@H](C)CO)C[C@@H]2C)c1 |  | inactive: 4.83%
COc1ccccc1CCNC(=O)C1CCN(c2nnc(C)c3c(C)n(-c4ccc(C)cc4)nc23)CC1 |  | inactive: -12.3%
CC(C)C(=O)Nc1nnc(S(=O)(=O)N2c3ccccc3CC2C)s1 (stereo unspecified) |  | inactive: -22.7%
CCN1/C(=C/C=C/c2oc3ccc4ccccc4c3[n+]2CC)Oc2ccc3ccccc3c21 |  | inactive: 157%
O=c1oc2c3c4c(cc2c(C(F)(F)F)c1CCN1CCOCC1)CCCN4CCC3 | active: 6.31 µM | 
O=C1/C(=C\c2cc(Cl)c(O)c(Cl)c2)SC(=S)N1Cc1ccccc1 | active: 3.98 µM | 
C[C@H](CO)N1C[C@H](C)[C@@H](CN(C)S(=O)(=O)c2ccc3c(c2)OCCCO3)OCc2cn(nn2)CCCC1=O |  | inactive: -16.5%
C[C@@H]1CN([C@H](C)CO)C(=O)CCCn2nncc2CO[C@H]1CN(C)Cc1cccc(C(=O)O)c1 |  | inactive: -3.28%
NC(=O)[C@@H]1CC2(CC(c3cccc(NC(=O)CC(c4ccccc4)c4ccccc4)c3)=NO2)CN1C(=O)c1ccc(Cl)cc1 (stereo partly specified) |  | inactive: 19.7%
C[C@H]1CN([C@@H](C)CO)C(=O)CCCn2nncc2CO[C@@H]1CN(C)Cc1ccccc1 |  | inactive: -10.4%
C[C@@H]1COC(=O)[C@H](Cc2ccc(F)cc2)C/C=C\C[C@@H](CC(=O)NCCO)C(=O)N1 |  | inactive: -28.6%
O=C1NC[C@H](c2ccccc2)OC(=O)[C@@H](Cc2ccc(F)cc2)CC/C=C/C[C@@H]1CC(=O)N(CCO)Cc1ccccc1 |  | inactive: -21.7%
CCc1ccc(C(=O)/C=C/Nc2ccc(S(=O)(=O)Nc3cnc4ccccc4n3)cc2)cc1 |  | inactive: -26.8%
CN1/C(=C\C=C2/SC(=S)NC2=O)C(C)(C)c2ccccc21 | active: 25.1 µM | 
C[C@H](CO)N1C[C@H](C)[C@@H](CN(C)S(=O)(=O)c2ccc3ccccc3c2)OCc2cn(nn2)CCCC1=O |  | inactive: -12.6%
Cc1cccc(C(=O)N=c2c(C#N)cc3c(=O)n4cccc(C)c4nc3n2Cc2ccco2)c1 |  | inactive: -9.65%
COc1ccc(N=C2SCC(=O)N2c2ccc(OC)cc2)cc1 |  | inactive: 36.1%
C[C@@H]1CCC[C@]2(O[C@H](CCO)C[C@H](O)[C@H]2O)O1 |  | inactive: -2.24%
C[C@H](NC(=O)c1[nH]cnc1C(=O)N[C@H](C)c1ccccc1)c1ccccc1 |  | inactive: -23.8%
